# Data taken from the supplement of paper PMC3334620.
# Whole data set: some 33,000 sequences, median “E-score (-0.5 to 0.5)” near -0.01, cut for the highest 2% near 0.26. The list shows a part of the results.
# Biological target: Ste12 (UniProt P13574)
# Assay: PBM E-score (8-mer binding enrichment) (E-score (-0.5 to 0.5)); higher = stronger / more preferred TF binding; most listed sequences are background and not binding sites
# Settings: protein concentration: 200 nM; construct: GST-DNA-binding domain
# Outline: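 Universal all-10-mer Agilent arrays, double-stranded by primer extension on fresh or once-stripped slides, were probed with about 100-200 nM GST-tagged yeast transcription factors made by PURExpress. Fluorescent anti-GST detected bound protein, and masliner normalised the scans. E-scores from the Universal PBM Analysis Suite were given to each ungapped eight-base word pooled with its reverse complement.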
row,Sequence,PBM E-score
1,GGTGTTAA,0.126
2,GCCGGTCA,0.0635
3,AAGGCCAT,-0.0634
4,CTGCGCAC,0.0412
5,CCTCTTGA,0.00072
6,GGCCTGTA,-0.102
7,GTGGGGAA,0.129
8,ACGATCGT,0.0232
9,AGAACCAC,-0.143
10,GTGTGTAA,0.137
11,CCAAGCAC,-0.00196
12,GCCCGAGA,-0.0722
13,CAACTTTA,0.161
14,GAAACGGC,0.229
15,ACTACATC,-0.0411
16,CTCGTCAC,0.132
17,GATCACAA,-0.0682
18,ATATACAA,0.216
19,TATCAAAA,0.302
20,CGTTGTAA,0.0721
21,GTAAGATA,0.0449
22,ACCCTGGC,-0.196
23,ATATGGTA,-0.0251
24,AACGTAGT,-0.0284
25,CACATTGA,0.0403

row,Sequence,PBM E-score
1,GCTAAGCA,-0.163
2,GGACGAAC,0.0407
3,CCGAATAC,0.153
4,AAATAATG,0.135
5,AAGATCTG,-0.0104
6,CTCCCAAA,0.0593
7,CGCATCAA,0.19
8,AAAATGGT,0.182
9,AAACAAAC,0.263
10,AACAAGGG,-0.0931
11,ATATTTCA,0.139
12,ACCCCAAA,0.114
13,CCTAAATA,0.0919
14,AGCACCTC,-0.154
15,GGCTCATA,-0.0561
16,CATTCCGA,0.152
17,CTGATAGC,0.0439
18,GGGGCCCA,-0.0553
19,CAAATCAG,0.236
20,TACGACGA,0.0292
21,ACGGCGCT,0.0539
22,ACTTAAGG,0.122
23,ATAGGTGG,-0.0442
24,ACTCAACG,-0.13
25,ATTGACCC,-0.121

row,Sequence,PBM E-score
1,TATCGGGA,0.136
2,AGTTAGTG,0.0205
3,AAATAGAT,0.275
4,TGCCAACA,0.0803
5,TATCCATA,0.0618
6,CCTGCAGC,-0.074
7,CCGTTACA,0.318
8,GCCGCATA,0.0504
9,AAACCGTG,-0.0313
10,ACTTTTGG,0.083
11,CCGAAATA,0.163
12,CCTGTTTC,0.32
13,ATTGAAAG,0.0623
14,AGCAGTCA,-0.0532
15,TTATAGAA,0.0807
16,CGCCACAG,-0.102
17,AGGCCCAA,-0.0418
18,AAATACCG,0.0621
19,CACGTCCC,-0.231
20,AGGTTGAA,0.055
21,AAGAGCTG,-0.158
22,TGTAGGAA,0.0271
23,ATGTCCTA,-0.138
24,ACATCCCT,-0.0649
25,AAACCAGC,0.0805

row,Sequence,PBM E-score
1,GAAGTGGA,0.0958
2,TAGCGGCA,-0.033
3,GGGAGGAA,0.0149
4,CTCGTAGA,-0.197
5,AGCTTACA,-0.049
6,CGATTCCG,-0.103
7,ACATCATC,0.0527
8,CTGGGTGC,-0.0683
9,GGCCAATA,0.0845
10,AAACTATC,0.033
11,CTCTATAA,0.0733
12,ATAAGCAC,-0.0531
13,CATATAGG,-0.0995
14,TACTGACA,0.0473
15,ACTGTGAT,-0.0243
16,ACCGGCGA,0.199
17,CTGACTAC,-0.129
18,ACTAAACG,-0.0755
19,GTACGCCA,-0.014
20,GAAGATGA,-0.107
21,ACCGTACA,-0.0112
22,GAGAGCTA,-0.0899
23,AACGACGA,0.0658
24,GTCCCTTA,0.11
25,ATTGGCCA,-0.216

row,Sequence,PBM E-score
1,TGGTGCAA,-0.18
2,ATGAATGA,0.192
3,GGAAAGCC,0.00426
4,CCCATGAG,-0.0476
5,CGGTCTTC,0.0919
6,GTGATCGA,0.161
7,GGAGTATA,-0.00182
8,GACCTCCA,-0.045
9,TCCGGCGA,-0.0324
10,CCGGACAA,-0.0587
11,AACGCGGC,-0.0365
12,GTTCTGGA,0.00683
13,ACACAACA,0.0034
14,AATGTTTC,0.318
15,AATGGATG,-0.00858
16,ACAGGTAA,-0.0912
17,AATTTGGT,0.144
18,ATGCTCCG,-0.0268
19,ACCACCCA,0.116
20,AGACTTAC,-0.16
21,TCCCGAAA,0.211
22,AGTGGTAT,-0.0443
23,AATCGCCA,-0.14
24,TCAAGGAA,-0.0777
25,AAGAGTGC,0.00189

row,Sequence,PBM E-score
1,ACAAGTAT,0.0702
2,GGAGTCTA,-0.165
3,ATCCTTAA,0.0034
4,AAGTAAGC,-0.118
5,CCGAGGTC,-0.211
6,TCTCCTCA,-0.17
7,TACGAGTA,0.0477
8,GCCTAAGA,-0.152
9,GAGTCCGA,0.0501
10,GTGACTAA,0.0255
11,ACCCACGA,-0.00878
12,GAGGCTGA,-0.0548
13,ATATCTCA,0.151
14,GGCGAGTA,0.19
15,ATTATTTG,0.106
16,ACCTTTCG,-0.115
17,CTCGTCCC,-0.0727
18,CTCCAGCC,-0.232
19,ATCACCCG,-0.015
20,CGATTGGC,-0.094
21,CTTCCCAA,0.0485
22,GATATAAC,0.0323
23,GTGGGGGA,-0.0367
24,ACATAGCT,-0.269
25,ATTCTGTC,0.101

row,Sequence,PBM E-score
1,CGCTTTAA,-0.101
2,AATGTCAC,-0.0144
3,GTCTCTGA,-0.168
4,ACAACCGT,-0.0961
5,GAGAGACC,-0.117
6,ACTCGAAA,0.15
7,ACGTCCGC,-0.117
8,TACATCTA,0.114
9,ACGAGTCG,-0.107
10,CGAAGGAG,-0.0964
11,CGTAACAA,0.293
12,ATAAACTA,0.211
13,ACAACCTA,0.035
14,ACATGGCC,-0.013
15,TTGACCAA,0.104
16,ACTTGACA,0.087
17,CTCTTTAC,0.0191
18,CAAGCGGC,0.209
19,GACGCGGC,0.0612
20,ACTACGGC,-0.121
21,CGACGTTA,0.037
22,ACCATTAG,-0.0902
